Toxic doses and inconclusive results are not listed. Some entries of the source have several records that differ or are many. They are shown here; other results are not. The source may hold further records. Values that stand side by side are repeated measurements (runs, samples, wells, individuals or studies). Marks in square brackets tell the records apart. The letters are not those of the source and start again with each entry.
Tested on: L1210 leukemia ip in BDF1 mice, survival T/C
Test: NCI In Vivo Anticancer Drug Screen. Data for tumor model L1210 Leukemia (intraperitoneal) in B6D2F1 (BDF1) mice
Conditions: endpoint: mean survival time, higher = longer survival

O=c1nc(NC(=S)Nc2ccn(C3OC(CO)C(O)C3O)c(=O)n2)ccn1C1OC(CO)C(O)C1O (stereo unspecified)
T/C (dose: 200.0 mg/kg/injection, schedule: Q01DX001 (ip), vehicle: water): 120 % of control [sample A] and 164 % of control [sample B]

CC1(N)COP(=O)(Nc2ccccc2)OC1 (stereo unspecified)
T/C (dose: 100.0 mg/kg/injection, schedule: Q01DX001 (ip), vehicle: carboxymethylcellulose (CMC)): 104 % of control and 152 % of control

Cc1cc(C)c(NC(=O)/C=C/C(=O)O)c(C)c1
T/C (dose: 400.0 mg/kg/injection, schedule: Q04DX002 (ip), vehicle: saline with Tween-80): 103 % of control and 150 % of control

Nc1nc(N)c2cc(CNc3ccc(C(=O)NC(CCCC(=O)O)C(=O)O)cc3)ccc2n1 (stereo unspecified)
T/C (dose: 1.0 mg/kg/injection, schedule: Q01DX009 (ip), vehicle: saline): 114 % of control and 150 % of control

CO[C@H]1Nc2c(ccc(C)c2O)C(=O)N2C=C(/C=C/C(N)=O)C[C@@H]12
T/C (dose: 1.0 mg/kg/injection, schedule: Q01DX001 (ip), vehicle: saline): 114 % of control, 119 % of control, 156 % of control

CCN(CCO)CC(C)Nc1ccc([N+](=O)[O-])c2sc3ccccc3c(=O)c12 (stereo unspecified)
T/C (dose: 27.0 mg/kg/injection, schedule: Q01DX Z (ip), vehicle: saline): 93 % of control and 152 % of control
T/C (dose: 40.5 mg/kg/injection, schedule: Q01DX Z (ip), vehicle: saline): 93 % of control and 172 % of control

CC(=O)c1cc(CN(CCCl)CCCl)c(O)c(CN(CCCl)CCCl)c1O
T/C (dose: 15.0 mg/kg/injection, schedule: Q01DX009 (ip), vehicle: carboxymethylcellulose (CMC)): 123 % of control and 170 % of control

O=C(CCc1ccc(C(=O)Nc2ccc(C3=NCCN3)cc2)cc1)Nc1ccc(C2=NCCN2)cc1
T/C (dose: 120.0 mg/kg/injection, schedule: Q01DX Z (ip), vehicle: carboxymethylcellulose (CMC)): 109 % of control and 189 % of control

CCN(O)C(N)=O
T/C (dose: 268.0 mg/kg/injection, schedule: Q01DX009 (ip), vehicle: saline): 112 % of control and 155 % of control
T/C (dose: 400.0 mg/kg/injection, schedule: Q01DX009 (ip), vehicle: saline): 120 % of control and 168 % of control

From PubChem BioAssay AID248 (DTP/NCI, 2004)
